Measured values: the supplement of paper PMC8728848
The list shows a part of the results.

Experiments:
Assay in all cases: glycan array binding signal (z-score within array); higher = stronger binding
Conditions in all cases: glycan notation: IUPAC condensed, linker removed
[1] = target: GlcNAc(b1-3)Gal(b1-4)GlcNAc(b1-3)Gal(b1-4)GlcNAc(b1-3)Gal(b1-4)GlcNAc(b1-3)Gal(b1-4)GlcNAc(b1-2)[GlcNAc(b1-3)Gal(b1-4)GlcNAc(b1-3)Gal(b1-4)GlcNAc(b1-3)Gal(b1-4)GlcNAc(b1-3)Gal(b1-4)GlcNAc(b1-6)]Man(a1-6)[GlcNAc(b1-3)Gal(b1-4)GlcNAc(b1-3)Gal(b1-4)GlcNAc(b1-3)Gal(b1-4)GlcNAc(b1-3)Gal(b1-4)GlcNAc(b1-2)Man(a1-3)]Man(b1-4)GlcNAc(b1-4)[Fuc(a1-6)]GlcNAc
How it was run: (§1)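 Glycan array data were curated from 3228 arrays in the Consortium for Functional Glycomics database and kept only where the protein sequence was available. Glycan names were converted to IUPAC-condensed notation, and columns mapping to the same glycan were averaged. The binding signal is a within-array Z-score, averaged across arrays of the same protein sequence at different concentrations or buffers and across linkers. Negative Z-scores can be read as non-binding.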

[2] = target: GlcNAc(b1-3)Gal(b1-4)GlcNAc(b1-3)Gal(b1-4)GlcNAc(b1-3)GalNAc
How it was run: as §1

[3] = target: GlcNAc(b1-3)Gal(b1-4)GlcNAc(b1-3)GalNAc
How it was run: as §1

[4] = target: GlcNAc(b1-3)Gal(b1-4)GlcNAc(b1-3)[GlcNAc(b1-3)Gal(b1-4)GlcNAc(b1-3)]GalNAc
How it was run: as §1

[5] = target: GlcNAc(b1-3)Gal(b1-4)GlcNAc(b1-6)[Gal(b1-3)]GalNAc
How it was run: as §1

[6] = target: GlcNAc(b1-3)Gal(b1-4)GlcNAc(b1-6)[GlcNAc(b1-3)Gal(b1-3)]GalNAc
How it was run: as §1

[7] = target: GlcNAc(b1-3)Gal(b1-4)GlcNAc(b1-6)[GlcNAc(b1-3)]Gal(b1-4)GlcNAc
How it was run: as §1

GlcNAc(b1-3)GalNAc = target: GlcNAc(b1-3)GalNAc
How it was run: as §1

GlcNAc(b1-3)Man = target: GlcNAc(b1-3)Man
How it was run: as §1

[8] = target: GlcNAc(b1-3)[GlcNAc(b1-4)][GlcNAc(b1-6)]GlcNAc
How it was run: as §1

[9] = target: GlcNAc(b1-3)[GlcNAc(b1-6)]Gal(b1-4)GlcNAc
How it was run: as §1

[10] = target: GlcNAc(b1-3)[GlcNAc(b1-6)]GalNAc
How it was run: as §1

[11] = target: GlcNAc(b1-4)Gal(b1-4)GlcNAc
How it was run: as §1

GlcNAc(b1-4)GlcNAc = target: GlcNAc(b1-4)GlcNAc
How it was run: as §1

[12] = target: GlcNAc(b1-4)GlcNAc(b1-4)GlcNAc
How it was run: as §1

[13] = target: GlcNAc(b1-4)GlcNAc(b1-4)GlcNAc(b1-4)GlcNAc(b1-4)GlcNAc
How it was run: as §1

[14] = target: GlcNAc(b1-4)GlcNAc(b1-4)GlcNAc(b1-4)GlcNAc(b1-4)GlcNAc(b1-4)GlcNAc
How it was run: as §1

[15] = target: GlcNAc(b1-4)[GlcNAc(b1-6)]GalNAc
How it was run: as §1

[16] = target: GlcNAc(b1-6)Gal(b1-4)GlcNAc
How it was run: as §1

GlcNAc(b1-6)GalNAc = target: GlcNAc(b1-6)GalNAc
How it was run: as §1

[17] = target: GlcNAc6S(b1-3)Gal(b1-4)GlcNAc
How it was run: as §1

Kdn(a2-3)Gal(b1-3)GalNAc = target: Kdn(a2-3)Gal(b1-3)GalNAc
How it was run: as §1

Kdn(a2-3)Gal(b1-3)GlcNAc = target: Kdn(a2-3)Gal(b1-3)GlcNAc
How it was run: as §1

Kdn(a2-3)Gal(b1-4)Glc = target: Kdn(a2-3)Gal(b1-4)Glc
How it was run: as §1

Kdn(a2-3)Gal(b1-4)GlcNAc = target: Kdn(a2-3)Gal(b1-4)GlcNAc
How it was run: as §1

[18] = target: Kdn(a2-3)Gal(b1-4)[Fuc(a1-3)]GlcNAc
How it was run: as §1

Kdn(a2-6)Gal(b1-4)GlcNAc = target: Kdn(a2-6)Gal(b1-4)GlcNAc
How it was run: as §1

[19] = target: Man(a1-2)Man(a1-2)Man(a1-3)Man
How it was run: as §1

[20] = target: Man(a1-2)Man(a1-2)Man(a1-6)[Man(a1-3)]Man
How it was run: as §1

Man(a1-2)Man(a1-3)Man = target: Man(a1-2)Man(a1-3)Man
How it was run: as §1

[21] = target: Man(a1-2)Man(a1-3)[Man(a1-2)Man(a1-6)]Man
How it was run: as §1

[22] = target: Man(a1-2)Man(a1-3)[Man(a1-2)Man(a1-6)]Man(a1-6)[Man(a1-2)Man(a1-2)Man(a1-3)]Man
How it was run: as §1

[23] = target: Man(a1-2)Man(a1-3)[Man(a1-2)Man(a1-6)]Man(a1-6)[Man(a1-2)Man(a1-2)Man(a1-3)]Man(b1-4)GlcNAc(b1-4)GlcNAc
How it was run: as §1

[24] = target: Man(a1-2)Man(a1-3)[Man(a1-6)]Man(a1-6)[Man(a1-2)Man(a1-3)]Man(b1-4)GlcNAc(b1-4)GlcNAc
How it was run: as §1

[25] = target: Man(a1-2)Man(a1-6)[Man(a1-3)]Man(a1-6)[Man(a1-2)Man(a1-2)Man(a1-3)]Man
How it was run: as §1

[26] = target: Man(a1-2)Man(a1-6)[Man(a1-3)]Man(a1-6)[Man(a1-2)Man(a1-2)Man(a1-3)]Man(b1-4)GlcNAc(b1-4)GlcNAc
How it was run: as §1

Man(a1-3)[Man(a1-6)]Man = target: Man(a1-3)[Man(a1-6)]Man
How it was run: as §1

[27] = target: Man(a1-3)[Man(a1-6)]Man(a1-6)[Man(a1-2)Man(a1-3)]Man(b1-4)GlcNAc(b1-4)GlcNAc
How it was run: as §1

[28] = target: Man(a1-3)[Man(a1-6)]Man(a1-6)[Man(a1-3)]Man
How it was run: as §1

[29] = target: Man(a1-3)[Man(a1-6)]Man(a1-6)[Man(a1-3)]Man(b1-4)GlcNAc(b1-4)GlcNAc
How it was run: as §1

[30] = target: Man(a1-3)[Man(a1-6)]Man(b1-4)GlcNAc(b1-4)GlcNAc
How it was run: as §1

[31] = target: Man(a1-3)[Man(a1-6)]Man(b1-4)GlcNAc(b1-4)[Fuc(a1-6)]GlcNAc
How it was run: as §1

Man(a1-6)Man = target: Man(a1-6)Man
How it was run: as §1

Man(b1-4)GlcNAc = target: Man(b1-4)GlcNAc
How it was run: as §1

MurNAc(b1-4)GlcNAc = target: MurNAc(b1-4)GlcNAc
How it was run: as §1

B1: Epa3 (Candida glabrata), Q6VBI8_CANGB (protein)
chain: MGSSHHHHHHSSGLVPRGSHMNDLGFSLFEKRELSSQNPFGYPIGCSPQDVAIIPGLTMELYSYPIVSGTPPNCYDASYVDPEYPRTGYLKRKMVGKSTGVTGNLNYKYSVEKACMVKYGNLPAGYNYNEPLTVSNFTMILYGYFKAQTTGLHTFFVNADDLLYINFGAGNAFDCCKREDSKTKLGEYVAYDIWHVDSSKNKVSLFLEKDLYYPIRMFFNNIGKDSSLDLSFSVNGATDQISDFSGYLYSVPDQPDTCPAHIGYDTTCR
glycan array binding signal (z-score) [1]: -0.182
glycan array binding signal (z-score) [2]: -0.33
glycan array binding signal (z-score) [3]: -0.265
glycan array binding signal (z-score) [4]: -0.249
glycan array binding signal (z-score) [5]: 0.905
glycan array binding signal (z-score) [6]: -0.276
glycan array binding signal (z-score) [7]: -0.338
glycan array binding signal (z-score) (GlcNAc(b1-3)GalNAc): -0.213
glycan array binding signal (z-score) (GlcNAc(b1-3)Man): -0.241
glycan array binding signal (z-score) [8]: -0.297
glycan array binding signal (z-score) [9]: -0.359
glycan array binding signal (z-score) [10]: -0.176
glycan array binding signal (z-score) [11]: -0.213
glycan array binding signal (z-score) (GlcNAc(b1-4)GlcNAc): -0.273
glycan array binding signal (z-score) [12]: -0.106
glycan array binding signal (z-score) [13]: -0.307
glycan array binding signal (z-score) [14]: -0.091
glycan array binding signal (z-score) [15]: -0.045
glycan array binding signal (z-score) [16]: -0.284
glycan array binding signal (z-score) (GlcNAc(b1-6)GalNAc): -0.139
glycan array binding signal (z-score) [17]: -0.013
glycan array binding signal (z-score) (Kdn(a2-3)Gal(b1-3)GalNAc): -0.196
glycan array binding signal (z-score) (Kdn(a2-3)Gal(b1-3)GlcNAc): -0.262
glycan array binding signal (z-score) (Kdn(a2-3)Gal(b1-4)Glc): -0.049
glycan array binding signal (z-score) (Kdn(a2-3)Gal(b1-4)GlcNAc): -0.225
glycan array binding signal (z-score) [18]: -0.192
glycan array binding signal (z-score) (Kdn(a2-6)Gal(b1-4)GlcNAc): -0.334
glycan array binding signal (z-score) [19]: 0.793
glycan array binding signal (z-score) [20]: -0.213
glycan array binding signal (z-score) (Man(a1-2)Man(a1-3)Man): -0.262
glycan array binding signal (z-score) [21]: -0.293
glycan array binding signal (z-score) [22]: -0.309
glycan array binding signal (z-score) [23]: -0.086
glycan array binding signal (z-score) [24]: -0.175
glycan array binding signal (z-score) [25]: -0.316
glycan array binding signal (z-score) [26]: -0.403
glycan array binding signal (z-score) (Man(a1-3)[Man(a1-6)]Man): 0.007
glycan array binding signal (z-score) [27]: -0.303
glycan array binding signal (z-score) [28]: -0.229
glycan array binding signal (z-score) [29]: -0.086
glycan array binding signal (z-score) [30]: -0.189
glycan array binding signal (z-score) [31]: -0.155
glycan array binding signal (z-score) (Man(a1-6)Man): 0.082
glycan array binding signal (z-score) (Man(b1-4)GlcNAc): -0.319
glycan array binding signal (z-score) (MurNAc(b1-4)GlcNAc): -0.357
